Assay results reported in the supplement of paper PMC7826260.
The list shows a part of the results. Each Rep nickase domain was tested in vitro on the same pool of single strands at 3 µM enzyme and 37 °C for 1 h; the strands have 90 letters, of which the middle is given. A value is the log2 ratio of uncut reads to the pool without enzyme; the lower, the more was cut; hits are not called. Reads are scaled to the total; where an enzyme cuts many sequences, the uncut ones exceed 0.

Experiments:
Experiment in all cases: uncleaved DNA left, log2 of reads against the no-enzyme library (log2 ratio); higher = less cleavage (more negative = more Rep cleavage of the k-mer); sequences stand for … in CTCGTCCG…ACCGGAGA
[1] = tested on: T1, Rep nickase domain of Muscovy duck circovirus
T1 sequence (residues 1-111, tag not shown): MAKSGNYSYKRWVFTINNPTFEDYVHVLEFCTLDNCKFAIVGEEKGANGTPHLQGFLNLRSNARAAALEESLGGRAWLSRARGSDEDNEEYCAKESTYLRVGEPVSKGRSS
Procedure: (§1)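 A pool of 90-nt single-stranded DNAs with seven random bases just before the constant AC of the nick site (name = the seven bases) was cut by 3 µM recombinant His6-SUMO-tagged Rep nickase domain (300 nM DNA, 50 mM HEPES pH 8.0, 50 mM NaCl, 1 mM MnCl2, 1 h, 37 °C, three replicates). Uncut DNA was amplified and sequenced.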

[2] = tested on: T2, Rep nickase domain of banana bunchy top virus
T2 sequence (residues 1-94, tag not shown): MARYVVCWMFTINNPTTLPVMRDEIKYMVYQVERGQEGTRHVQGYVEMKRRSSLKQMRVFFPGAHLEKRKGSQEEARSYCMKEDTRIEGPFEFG
Procedure: as §1

[3] = tested on: T3, Rep nickase domain of cabbage leaf curl virus
T3 sequence (residues 1-116, tag not shown): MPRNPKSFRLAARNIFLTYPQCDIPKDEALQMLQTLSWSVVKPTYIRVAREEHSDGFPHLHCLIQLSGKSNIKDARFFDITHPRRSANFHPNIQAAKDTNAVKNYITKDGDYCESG
Procedure: as §1

[4] = tested on: T4, Rep nickase domain of chickpea chlorotic dwarf virus
T4 sequence (residues 1-124, tag not shown): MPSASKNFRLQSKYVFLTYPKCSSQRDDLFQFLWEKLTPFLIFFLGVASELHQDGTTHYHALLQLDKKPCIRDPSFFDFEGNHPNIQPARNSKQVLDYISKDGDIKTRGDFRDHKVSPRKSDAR
Procedure: as §1

[5] = tested on: T5, Rep nickase domain of faba bean necrotic yellows virus
T5 sequence (residues 1-98, tag not shown): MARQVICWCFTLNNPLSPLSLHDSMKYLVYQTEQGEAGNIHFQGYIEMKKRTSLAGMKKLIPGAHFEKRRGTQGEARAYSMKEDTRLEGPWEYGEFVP
Procedure: as §1

[6] = tested on: T6, Rep nickase domain of maize striate mosaic virus
T6 sequence (residues 1-117, tag not shown): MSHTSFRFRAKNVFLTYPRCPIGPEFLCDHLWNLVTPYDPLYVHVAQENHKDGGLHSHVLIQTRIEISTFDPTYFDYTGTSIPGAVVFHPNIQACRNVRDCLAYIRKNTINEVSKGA
Procedure: as §1

[7] = tested on: T7, Rep nickase domain of porcine circovirus 2
T7 sequence (residues 2-116, tag not shown): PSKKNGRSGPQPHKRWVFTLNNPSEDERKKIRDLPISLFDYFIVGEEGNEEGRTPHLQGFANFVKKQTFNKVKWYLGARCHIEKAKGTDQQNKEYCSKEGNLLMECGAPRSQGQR
Procedure: as §1

[8] = tested on: T8, Rep nickase domain of tomato golden mosaic virus
T8 sequence (residues 1-124, tag not shown): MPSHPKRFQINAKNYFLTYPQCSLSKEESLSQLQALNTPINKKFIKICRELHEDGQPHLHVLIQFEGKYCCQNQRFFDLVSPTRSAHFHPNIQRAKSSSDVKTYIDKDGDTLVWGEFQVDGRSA
Procedure: as §1

[9] = tested on: T9, Rep nickase domain of tomato yellow leaf curl virus
T9 sequence (residues 1-136, tag not shown): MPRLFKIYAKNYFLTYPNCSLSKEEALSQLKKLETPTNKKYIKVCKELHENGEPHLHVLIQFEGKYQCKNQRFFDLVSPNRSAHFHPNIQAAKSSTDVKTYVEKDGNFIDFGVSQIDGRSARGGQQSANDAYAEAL
Procedure: as §1

[10] = tested on: T10, Rep nickase domain of wheat dwarf virus
T10 sequence (residues 1-137, tag not shown): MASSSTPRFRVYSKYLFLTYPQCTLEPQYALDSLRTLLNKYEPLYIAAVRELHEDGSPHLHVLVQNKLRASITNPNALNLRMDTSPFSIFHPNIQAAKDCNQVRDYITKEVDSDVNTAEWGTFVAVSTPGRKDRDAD
Procedure: as §1

Sequence | uncleaved DNA left (log2) [1] | uncleaved DNA left (log2) [2] | uncleaved DNA left (log2) [3] | uncleaved DNA left (log2) [4] | uncleaved DNA left (log2) [5] | uncleaved DNA left (log2) [6] | uncleaved DNA left (log2) [7] | uncleaved DNA left (log2) [8] | uncleaved DNA left (log2) [9] | uncleaved DNA left (log2) [10]
CCTTGCT | -0.153 | -0.042 | -0.722 | -0.962 | 0.073 | -1.11 | -0.552 | -0.0359 | 0.0397 | -0.164
TACTGAG | -0.00588 | 0.0598 | -0.714 | -0.549 | -0.0391 | -1.06 | 0.216 | -0.0349 | 0.0462 | -0.0927
CTGCTAA | -0.0039 | -0.0279 | -0.318 | -0.504 | -0.0905 | -0.905 | -0.0324 | -0.0284 | -0.0734 | -0.0655
GAAGAGC | 0.203 | 0.171 | 0.105 | 0.465 | 0.0759 | -0.309 | 0.234 | 0.149 | 0.177 | 0.0249
GCGGAGC | -0.231 | -0.104 | 0.199 | 0.718 | -0.0858 | 0.782 | 0.0156 | -0.0208 | -0.1 | -0.0438
AGAACGG | 0.0228 | 0.185 | 0.324 | 1.01 | 0.0919 | 1.44 | 0.225 | 0.216 | 0.0144 | 0.13
TAAGGGC | 0.072 | 0.121 | 0.342 | 0.72 | 0.135 | 0.503 | 0.00263 | 0.141 | 0.055 | 0.113
ACAGCTT | -0.0231 | -0.131 | -0.415 | -2.19 | -0.0996 | -0.792 | -0.0429 | -0.0193 | -0.119 | -0.0208
GGTCCAT | 0.0899 | 0.0668 | 0.819 | 2.04 | 0.00348 | 2.23 | 0.181 | 0.0397 | 0.0181 | 0.197
GAGAAGT | 0.124 | 0.0224 | 0.332 | 0.609 | -0.0247 | 0.611 | -2.29 | 0.0752 | 0.116 | 0.109
TTCCGAC | 0.101 | -0.0173 | 0.417 | 0.383 | 0.088 | -0.0079 | 0.135 | -0.0564 | 0.0553 | 0.15
AAAGCTG | 0.0579 | 0.0871 | 0.436 | 1.77 | 0.106 | 1.77 | 0.254 | 0.093 | -0.0191 | 0.169
TGGAGTC | 0.0515 | 0.158 | 0.398 | 0.889 | 0.0159 | 0.727 | 0.0536 | -0.0251 | 0.0123 | 0.207
ACGCCAC | -0.0681 | -0.16 | -0.263 | -0.457 | -0.0937 | -0.525 | -0.0405 | -0.192 | -0.168 | -0.0203
GCCATGC | 0.141 | 0.102 | -0.498 | -0.23 | 0.0827 | -0.897 | 0.23 | 0.108 | 0.218 | 0.0806
CCAGCGG | -0.0482 | 0.0393 | 0.416 | 1.2 | 0.0102 | 1.11 | 0.0581 | 0.149 | -0.0671 | 0.0465
ATGCTGT | 0.0576 | -0.0254 | 0.0773 | 0.94 | -0.0348 | 0.874 | -0.0329 | 0.025 | -0.0556 | -0.107
TAGGTCC | 0.0792 | 0.114 | 0.0499 | 0.316 | -0.0187 | 0.627 | 0.0502 | 0.0845 | 0.152 | 0.122
TTGATCC | -0.0946 | -0.0778 | 0.112 | 0.0171 | -0.172 | -0.303 | -0.082 | -0.153 | -0.0679 | -0.0953
GTGAGTT | 0.128 | 0.0296 | 0.451 | 0.932 | 0.135 | 1.56 | 0.0964 | 0.13 | 0.17 | 0.125
CGTCTAT | 0.0609 | -0.00211 | 0.196 | -0.262 | -0.0139 | 0.0145 | -0.0137 | -0.0524 | 0.00622 | 0.115
AGAGATT | 0.0518 | -0.192 | 0.149 | 0.178 | 0.063 | 1.42 | -0.227 | 0.0509 | -0.209 | -0.12
TGATGCA | -0.0672 | 0.056 | -0.379 | -0.824 | -0.0578 | -1.05 | -0.149 | -0.17 | -0.00199 | -0.121
CGGATGT | -0.0626 | -0.0548 | 0.159 | 0.939 | 0.0509 | 1.54 | 0.0604 | -0.115 | -0.0356 | 0.0546
TATCAGA | 0.0522 | 0.0971 | 0.0145 | -0.352 | 0.076 | -0.862 | 0.219 | 0.0507 | 0.0372 | 0.108
CAGAAAG | 0.0911 | 0.0249 | -0.754 | -0.264 | 0.138 | -1.02 | 0.173 | 0.126 | 0.094 | 0.0158
CAGTGGA | 0.0523 | -0.11 | -0.189 | -0.206 | -0.0674 | -0.784 | -2.56 | 0.0457 | -0.117 | 0.0529
GTGCTGT | 0.0482 | 0.00404 | 0.233 | 0.872 | 0.0806 | 1.06 | 0.0687 | 0.0394 | -0.0137 | -0.0315
TCAACAG | -0.0321 | 0.00926 | -0.694 | -1.67 | -0.0192 | -1.1 | 0.106 | 0.0189 | 0.0325 | -0.0792
GCTGGAA | -0.0477 | -0.194 | 0.176 | 0.953 | 0.0337 | 1.13 | 0.221 | 0.0405 | 0.0909 | -0.0204
